# Data taken from paper PMC4242493.
# The other results are listed elsewhere or left out. The list includes weakly bound sequences.
# Biological target: MaxL homodimer (UniProt P61244)
# Assay: universal protein-binding microarray (PBM)
# Conditions: PBS-based mixture, 10 nM His-tagged protein dimer, 2% milk, 200 ng/uL BSA, 50 ng/uL salmon testes DNA, 0.02% TX-100; detection with Alexa 488 anti-His …; high values mean tight binding; most listed sequences are background and not binding sites; double strand, one strand shown
# Chain of UniProt P61244 (P61244 whole entry): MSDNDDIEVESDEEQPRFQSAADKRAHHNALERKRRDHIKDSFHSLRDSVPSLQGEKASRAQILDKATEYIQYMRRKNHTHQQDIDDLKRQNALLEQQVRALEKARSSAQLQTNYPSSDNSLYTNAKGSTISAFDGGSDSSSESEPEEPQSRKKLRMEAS
row,Sequence,binding signal (normalized occupancy)
1,AGGCTGCC,0.0704
2,CCATAAGC,0.0819
3,AATTCTAC,0.0758
4,ATACTCAT,0.0841
5,CTCCCTGC,0.0727
6,CTTCGCGC,0.0677
7,CGTTGAAC,0.0711
8,GAAACTAC,0.0727
9,AGCCCACG,0.0842
10,CTTGTGCA,0.08
11,AATGATCA,0.079
12,GTGCAAGA,0.0761
13,AATTGTAA,0.0757
14,GTCTAAAC,0.0747
15,CCCGGCGC,0.0656
16,ACTACAGT,0.0741
17,ACCACAAC,0.0788
18,GACATTGA,0.078
19,CTCTATTA,0.0807
20,ATCTTATG,0.0775
21,AGTACCAT,0.0799
22,CGGTTTTC,0.0658

row,Sequence,binding signal (normalized occupancy)
1,ATAGAGTC,0.0769
2,CAAAACCC,0.0776
3,TGATTTAA,0.0746
4,ATCGCACG,0.0869
5,GGTTGGAA,0.0693
6,CGCGCATC,0.0763
7,GGCCTACA,0.0738
8,TGCGCCAA,0.0753
9,CATATCCG,0.0835
10,CACTATGC,0.0731
11,AGACGGCG,0.0699
12,CGCACCCG,0.0715
13,GAGTTTGA,0.0714
14,GTGAACAC,0.0795
15,CCGCAGTC,0.0686
16,AAAGGGTT,0.0754
17,CGTAACGC,0.0778
18,CCAAAGCG,0.0676
19,GGGTGGCA,0.0751
20,GCTCTATA,0.081
21,ACCGTCTA,0.0715
22,ACCAAATA,0.0745

row,Sequence,binding signal (normalized occupancy)
1,ACGCAAGC,0.0724
2,AAAACTTG,0.0672
3,GGGACGCA,0.0774
4,GGGATAAA,0.0813
5,AAAAAATG,0.0751
6,CGCTTATA,0.0805
7,ACGGGCAT,0.0766
8,CAGGCACA,0.0804
9,CCAAATAC,0.0749
10,ATTTACGG,0.0721
11,CGATCGTC,0.0707
12,CTAGATCA,0.0771
13,AAAGCGCA,0.0715
14,AGGATAAA,0.0747
15,AAAGCTGA,0.0683
16,CACTGCTC,0.0738
17,TGGCGCCA,0.0698
18,CGGAAATA,0.0733
19,CATTAGGC,0.0742
20,ATAGGTGC,0.084
21,AGGCGCAT,0.0787
22,GAATGGAA,0.0714

row,Sequence,binding signal (normalized occupancy)
1,CACCATCA,0.0874
2,CACACACC,0.083
3,ATTCGCCA,0.0789
4,TCGTGCAA,0.0766
5,GGATTGAC,0.0725
6,CTAACCGC,0.07
7,CTGGCCGC,0.0752
8,AGATATAA,0.077
9,ATCATATC,0.0861
10,TCATTGGA,0.0693
11,AATACCCA,0.0787
12,ACCCCGGG,0.0739
13,AACCAAAC,0.0724
14,GTTAGGAA,0.076
15,GAAAGGCC,0.071
16,CACGCTCG,0.0939
17,ACCCGCAA,0.0725
18,ACACCCCA,0.0864
19,AATACCAT,0.0843
20,CTTAAAAC,0.071
21,CGCAATAG,0.0692
22,AATCCGGC,0.0689

row,Sequence,binding signal (normalized occupancy)
1,AGGAAGGA,0.0765
2,AAGCGGTA,0.0729
3,CTAAAGTA,0.0751
4,GACGTGAA,0.0766
5,GGTCAGTA,0.0723
6,CCCTCGAA,0.0795
7,AAATACTC,0.0734
8,AACCCTCG,0.0775
9,ACTCGTAA,0.0709
10,ATTTGACG,0.0755
11,AGGCTTAC,0.0686
12,GCATATAA,0.0812
13,GAACTGCC,0.0732
14,CCGAATCA,0.0772
15,GGGTCTGA,0.0713
16,CCCCTCGC,0.0758
17,CGGGCAAC,0.0672
18,GTATGCTA,0.0818
19,CCGTTGAC,0.0756
20,TCATACAA,0.0763
21,CGATGCAA,0.0703
